PMC13083723 (Patterns, 2026)
About 190 (3.5%) of roughly 5,400 compounds showed an effect of 50% or more. Some of the results follow. Residues, ends and D or L forms follow the SMILES beside them.

tested on: Vero-E6; test: primary screen, phospholipidosis by LipidTOX staining; higher = more effect of the substance; details: 10 µM
How it was run: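 Single-concentration screen at 10 μM, with DMSO 0.1 v/v % and amiodarone 10 μM as controls. Read-out is LipidTOX Red phospholipid staining, which tolerates aldehyde fixation, in Vero-E6 cells.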

SMILES | result_ITMP
CC[C@H](CO)Nc1nc(Nc2cccc(-c3ccccn3)c2)c2ncn(C(C)C)c2n1 | 0.3%
CCCCCCOc1ccccc1C(N)=O | -5.88%
O=C(O)C1=CC(O)C(O)[C@H](O)C1 (stereo partly drawn) | 1.4%
O=C([O-])CN1CCN(CC(=O)[O-])CCN(C(CO)C(O)CO)CCN(CC(=O)[O-])CC1.[Gd+3] (stereo not drawn) | -1.16%
CCc1cc2c(cc1CC)CC(NC[C@H](O)c1ccc(O)c3[nH]c(=O)ccc13)C2 | 0.13%
c1cc(CN2CCCCC2)cc(OCCCNc2nc3ccccc3s2)c1 | 32.9%
CCn1c2ccccc2c2cc(CNC)ccc21 | 73.3%
Cc1c(-c2ccc(O)cc2)n(Cc2ccc(OCCN3CCCCCC3)cc2)c2ccc(O)cc12 | 57.2%
CCOC1O[C@H]([C@@H](COCc2ccccc2)OCc2ccccc2)[C@H](OCc2ccccc2)[C@H]1O (stereo partly drawn) | -9.88%
C=C[C@]1(C)C[C@@H](OC(=O)CSC(C)(C)CNC(=O)[C@H](N)C(C)C)[C@]2(C)[C@H](C)CC[C@]3(CCC(=O)[C@H]32)[C@@H](C)[C@@H]1O | 22%
CC1(C)S[C@@H]2[C@H](NC(=O)COc3ccccc3)C(=O)N2[C@H]1C(=O)[O-] | -2.47%
Cc1cc(Nc2cc(N3CCN(C)CC3)nc(Sc3ccc(NC(=O)C4CC4)cc3)n2)n[nH]1 | 8.23%
Clc1ccc2nsnc2c1NC1=NCCN1 | 0.86%
CC(C)N1CCN(c2ccc(C(=O)c3c(-c4ccc(O)cc4)sc4cc(O)ccc34)cc2)CC1 | -7.16%
Cc1cc2cc3c(C)cc(=O)oc3c(C)c2o1 | -5.78%
CC(=O)Nc1c(I)cc(I)c(C(=O)O)c1I | 0.28%
CCCCOc1ccc(C(=O)Nc2ccc(F)cc2F)cc1 | -8.12%
Nc1nc(OCc2cc(Br)cs2)c2[nH]cnc2n1 | -7.63%
CC(=O)Nc1nnc(S(N)(=O)=O)s1 | 1.15%
CC(C)Oc1ccc2c(=O)c(-c3ccccc3)coc2c1 | -4.93%
O=C(CCCl)NCCc1ccccc1 | 4.22%
N[C@H]1CC[C@H](N[C@@H]2C[C@H]2c2ccccc2)CC1 | 65.7%
NC1(Cc2ccc(Cl)cc2)CCN(c2ncnc3[nH]ccc23)CC1 | 37.1%

SMILES | result_ITMP
CC(C)(C)c1cc(O)c(C(C)(C)C)cc1O | 0.77%
CC(C)c1ccccc1S(=O)(=O)c1cc(N)c2ncccc2c1[N+](=O)[O-] | -1.12%
C[N+]1(CC2CC2)[C@@H]2C[C@@H](OC(=O)[C@H](CO)c3ccccc3)C[C@H]1[C@@H]1O[C@@H]12 (stereo partly drawn) | 7.9%
Cc1ccc(S(=O)(=O)Nc2nc3ccccc3nc2Nc2ccc3nsnc3c2)cc1 | -6.5%
CCC(C)c1ccc(NC(=O)Cn2cnc3c2c(=O)n(C)c(=O)n3C)cc1 (stereo not drawn) | -1.59%
CCOC(=O)C1=C(N)Oc2ccc(Br)cc2C1C(C#N)C(=O)OCC (stereo not drawn) | 0.34%
CCCCN(CC)c1nc(C)nc2c1c(C)c(C)n2-c1c(C)cc(C)cc1C | -0.39%
N#C/C(=C1/SC[C@@H](c2ccc(Cl)cc2Cl)S1)n1ccnc1 | -11.6%
COc1cc([C@H]2Oc3cc([C@H]4Oc5cc(O)cc(O)c5C(=O)[C@@H]4O)ccc3O[C@@H]2CO)ccc1O | -5.32%
CC(C)C(=O)Nc1ncc(-c2cc(C(F)F)nn2-c2c(Cl)cccc2Cl)s1 | 2.21%
C/C=C(/C)C(=O)O[C@H]1C(C)=C[C@]23C(=O)[C@@H](C=C(CO)[C@@H](O)[C@]12O)[C@H]1[C@@H](C[C@H]3C)C1(C)C | 0.09%
CCCCOc1cc(C(=O)OCCN(CC)CC)ccc1N | 18.9%
O=S(=O)(O)c1ccc2[nH]c(-c3ccccc3)nc2c1 | -0.79%
Cc1nc2n(c(=O)c1CCN1CCC(c3noc4cc(F)ccc34)CC1)CCC[C@H]2O | -1.97%
C[C@@H](N)Cc1c[nH]cn1 | -1.95%
CC1(C)C(=O)N(c2ccc(C#N)c(C(F)(F)F)c2)C(=O)N1CCCCO | -0.89%
CC(C)(C)c1ccc(NC(=O)N2CCN(c3ncccc3Cl)CC2)cc1 | -2.26%
O=C(/C=C/c1ccc(O)c(O)c1)O[C@H](Cc1ccc(O)c(O)c1)C(=O)O | -3.9%
NC(=O)C1CCCc2c1[nH]c1ccc(Cl)cc21 (stereo not drawn) | -0.07%
Cc1cccc(C)c1-n1c(=O)c2cnc(Nc3ccc(N4CCN(C)CC4)cc3)nc2n2c3ccccc3nc12 | 81.7%
CCS(=O)(=O)c1cccc(-c2cc(C(=O)NC3CCN(C)CC3)c(C)c3[nH]c4ncc(C)cc4c23)c1 | 5.5%
COC(=O)[C@H](Cc1ccccc1)NC(=O)[C@@H](N)CC(=O)O (H-Asp-Phe-OMe) | -3.16%
